Laboratory results from article PMC4336329 (PLoS ONE, 2015).
In all, about 310,000 compounds went through this assay and about 2,200 (0.71%) showed an effect of 50% or more. The effect is printed as a negative number. Some of the results follow.

Molecular target: human ether-à-go-go-related gene (hERG) potassium channel (human, UniProt Q12809)
Experiment: primary screen, population patch clamp on CHO cells stably expressing hERG

human ether-à-go-go-related gene (hERG) potassium channel, sequence (Q12809 whole entry, looked up): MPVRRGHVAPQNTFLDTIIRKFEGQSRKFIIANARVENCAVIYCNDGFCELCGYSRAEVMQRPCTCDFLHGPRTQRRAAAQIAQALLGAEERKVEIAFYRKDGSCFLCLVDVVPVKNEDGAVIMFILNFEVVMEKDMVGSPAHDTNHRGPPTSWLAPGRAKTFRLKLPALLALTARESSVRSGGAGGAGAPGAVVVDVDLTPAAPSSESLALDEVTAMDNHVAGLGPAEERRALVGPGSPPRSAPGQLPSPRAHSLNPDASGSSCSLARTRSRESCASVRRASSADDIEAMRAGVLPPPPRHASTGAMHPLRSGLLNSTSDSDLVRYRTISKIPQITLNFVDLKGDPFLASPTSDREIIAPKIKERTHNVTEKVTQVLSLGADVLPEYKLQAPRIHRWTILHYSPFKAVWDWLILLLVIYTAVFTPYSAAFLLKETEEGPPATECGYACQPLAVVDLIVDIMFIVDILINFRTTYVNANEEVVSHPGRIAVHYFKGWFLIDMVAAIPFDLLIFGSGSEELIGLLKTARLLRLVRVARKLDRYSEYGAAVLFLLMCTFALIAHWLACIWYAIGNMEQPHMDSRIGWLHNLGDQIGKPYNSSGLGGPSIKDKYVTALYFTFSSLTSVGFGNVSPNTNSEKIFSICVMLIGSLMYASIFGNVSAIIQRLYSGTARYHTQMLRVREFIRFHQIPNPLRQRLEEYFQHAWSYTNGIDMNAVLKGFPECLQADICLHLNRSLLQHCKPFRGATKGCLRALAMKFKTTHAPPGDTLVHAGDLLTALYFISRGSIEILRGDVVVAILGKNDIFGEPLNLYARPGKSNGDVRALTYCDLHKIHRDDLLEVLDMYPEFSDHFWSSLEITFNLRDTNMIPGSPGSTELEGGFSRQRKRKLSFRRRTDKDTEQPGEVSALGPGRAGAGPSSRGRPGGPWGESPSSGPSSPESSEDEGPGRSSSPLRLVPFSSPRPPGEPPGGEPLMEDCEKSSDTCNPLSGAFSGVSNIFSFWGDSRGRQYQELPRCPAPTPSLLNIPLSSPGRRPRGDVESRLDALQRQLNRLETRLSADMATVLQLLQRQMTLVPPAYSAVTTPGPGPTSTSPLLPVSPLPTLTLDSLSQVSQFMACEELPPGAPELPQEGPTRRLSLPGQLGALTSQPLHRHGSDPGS

| SMILES | hERG current change (%, negative = inhibition) at 1uM |
| --- | --- |
| COc1cc(OC)cc(-c2nnc(SCc3cccnc3)o2)c1 | -1.32% |
| Cc1nn(Cc2ccc(Cl)cc2)c(C)c1NC(=O)c1cc(-c2ccc3c(c2)OCO3)on1 | 3.51% |
| CN(CC(=O)O)c1ccc(S(=O)(=O)N2CCOCC2)cc1[N+](=O)[O-] | 12.4% |
| CCC(C)(C)C1CCc2[nH]nc(C(=O)NCc3ccccn3)c2C1 (stereo not drawn) | 12.6% |
| COc1ccc(C(=O)NC2CC2)cc1OC1CCN(Cc2cc(C)cc(C)c2)CC1 | -57.7% |
| CC(=O)OC(C(=O)NC1CCCCC1)c1ccc(Cl)c(Cl)c1 (stereo not drawn) | 16.1% |
| CC1CCN(C(=O)CN2C(=O)NC3(CCCCCC3)C2=O)CC1 | 9.83% |
| Cc1c(C(=O)NC(=S)N(Cc2ccccc2)c2ccccn2)cccc1[N+](=O)[O-] | 10.8% |
| CC(=O)Nc1ccc(/C=C(\C#N)C(=O)NC2CCCCC2)cc1 | 15.8% |
| C#CCOCCOCCOCCNc1nc(N2CCN(C(=O)CCCCCCCCCCNC(=O)[C@@H](CCSC)n3cc(CCO)nn3)CC2)nc(N2CCN(C(=O)CCCCCCCCCCNC(=O)[C@H](CCCN=C(N)N)n3cc(C[C@@H](C)CC)nn3)CC2)n1 | 16.1% |
| Cc1ccc(S(=O)(=O)Cc2nnnn2-c2ccccc2)cc1 | 11.5% |
| O=C(COc1ccccc1)Nc1ccc(N2CCN(C(=O)c3ccco3)CC2)cc1 | -7.24% |
| Cc1cc(C)c(C(=O)CN2C(=O)NC3(CCCCCC3)C2=O)cc1C | 18.5% |
| CC(C)(C)c1nnc(NC(=O)c2cccnc2Cl)s1 | 9.9% |
| COc1ccc(OCc2nn3c(-c4cccc(OC)c4)nnc3s2)cc1 | 3.7% |
| Nc1cc(S(=O)(=O)N2CCCCC2)ccc1Oc1ccc(Cl)cc1 | 11.1% |
| Cc1ccc(NC(=O)C2CCN(c3nc(C)cc(C)n3)CC2)cc1 | 18.7% |
| Cc1ccccc1NC(=O)COc1coc(CN2CCN(c3ccccc3)CC2)cc1=O | -1.02% |
| CCOc1ccc(NC(=O)c2ccccc2NS(C)(=O)=O)cc1 | -16.5% |
| CCn1c(=O)c2cc(C(=O)N(C)c3ccc(OC)cc3OC)sc2c2ccccc21 | 10.6% |
| CN(C)c1nc(OCCNC(=O)Nc2ccc(Cl)cc2)nc(N(C)C)n1 | 10.9% |
| CN(C)/C=N/c1nc2nccc(-c3cccc(Cl)c3)n2n1 | 12% |

| SMILES | hERG current change (%, negative = inhibition) at 1uM |
| --- | --- |
| C#CCn1c(=NC(=O)c2cccs2)sc2cccc(OCC)c21 | 15.8% |
| CN(CC(=O)Nc1ccc(F)c(F)c1F)C(=O)CN1C(=O)C2CCCCC2C1=O (stereo not drawn) | -5.9% |
| c1cc(-c2n[nH]c(-c3ccncc3)n2)ccn1 | 12.9% |
| O=C(NC1CCCC1)c1ccc(CNc2c(N3CCOCC3)c(=O)c2=O)cc1 | 12% |
| O=c1cc(NCc2ccc3c(c2)OCO3)[nH]c(=O)n1-c1ccc(Cl)cc1 | -3.67% |
| O=C(/C=C/c1ccccc1)Nc1cccnc1 | 0.0301% |
| COc1cc(C(=O)NCCCNC(=O)c2cc(OC)c(OC)c(OC)c2)cc(OC)c1OC | 6.83% |
| COc1ccc(C(=O)Nc2cc(OCc3ccccc3)c(Cl)cc2Cl)cc1 | 15.2% |
| COCC(=O)Nc1ccc(C(C)C)cc1 | 1.61% |
| CCOC(=O)C1(Cc2cccc(F)c2)CCN(C(=O)c2cnccn2)CC1 | 12.8% |
| Cc1onc(-c2c(Cl)cccc2Cl)c1C(=O)NNC(=O)c1c(-c2c(Cl)cccc2Cl)noc1C | 15.9% |
| S=C(NC1CCCC1)N1CCN(c2ccc(Cl)cc2)CC1 | 3.48% |
| Cc1nn2c3ccccc3n(CCN3CCCCC3)c2nc1=O | 7.27% |
| CC(C)(C)N1CC(c2nc3ccccc3n2Cc2ccc(Cl)cc2)CC1=O (stereo not drawn) | -3.24% |
| COc1ccccc1N1CCN(S(=O)(=O)c2cccs2)CC1 | -3.76% |
| Cc1ccc(S(=O)(=O)N(C)CCCC(=O)N2CCN(C=O)CC2)cc1 | 2.93% |
| Cc1sc2nc(CC(N)=O)[nH]c(=O)c2c1-c1ccccc1 | 14.3% |
| Cc1nnc(-c2cccc(Br)c2)c2cn(-c3ccccc3)nc12 | -15.7% |
| CC(=O)Nc1c(S(=O)(=O)c2ccccc2)c2nc3ccccc3nc2n1Cc1ccccc1 | 6.92% |
| COc1ccc(OCC(=O)OCC(=O)N2CC(=O)Nc3ccccc32)cc1 | 1.24% |
| O=C(COC(=O)c1ccc(S(=O)(=O)Nc2ccccc2)cc1)NCCN1C(=O)CSC1=O | 4.61% |
| O=C(CSc1nc2ccsc2c(=O)n1NC(=O)c1ccccc1)NCc1ccco1 | -3.26% |

| SMILES | hERG current change (%, negative = inhibition) at 1uM |
| --- | --- |
| Cn1cc(C[C@H](NC(=O)OC(C)(C)C)C(=O)N[C@@H](CO)Cc2ccccc2)c2ccccc21 | 2.24% |
| C/C(=N\OCC(=O)Nc1ccc(F)c(F)c1F)c1cc2ccccc2o1 | 10.6% |
| O=C(CN(CC1CCCO1)C(=O)CNS(=O)(=O)c1ccccc1)NCc1ccc(F)cc1 (stereo not drawn) | 14.8% |
| CC(C)CN(C)C(=O)CC1C(=O)NCCN1C (stereo not drawn) | 15.2% |
| O=c1c(-c2ccc3c(c2)OCCO3)coc2c(CN3CCOCC3)c(O)ccc12 | -4.97% |
| CCOC(=O)c1c(C)n(C)c2ccc(OC(C)C(=O)OC)cc12 (stereo not drawn) | -0.594% |
| CCOc1cc(NC(=S)NCc2ccco2)c(OCC)cc1NC(=O)CC | 2.13% |
| Nc1ncnc2c1ncn2C1CCC(CO)C(O)C1 (stereo not drawn) | 8.22% |
| Cc1cc(C(=O)N/N=C/c2cccs2)no1 | 2.98% |
| CCCCN(C(=O)c1c(CC)noc1C)c1c(N)n(CCCC)c(=O)[nH]c1=O | 5.96% |
| CCc1ccc(C2=Nn3c(nnc3-c3cccs3)SC2)cc1 | -7.75% |
| COc1cc2c3nnc(-c4ccccc4)c-3cn(Cc3ccccc3F)c2cc1OC | 11% |
| COc1ccc(-c2cc(C(=O)Nc3ccccc3)on2)cc1 | 15.6% |
| O=C1CC(Cc2ccccc2)C(=O)N1CCc1ccc2c(c1)OCO2 (stereo not drawn) | 3.24% |
| CC(C)C(NC(=O)OCc1ccccc1)C(=O)O (stereo not drawn) | 7.14% |
| CCOC(=O)c1sc2nc(N3CCOCC3)c3c(c2c1N)CCCC3 | 10.6% |
| COC(=O)c1scc(C)c1NS(=O)(=O)c1ccc(NC(C)=O)cc1 | 2.88% |
| CC1CCN(C(=O)COC(=O)c2ccccc2NC(=O)c2ccco2)CC1 | -8.23% |
| CC(C)C(=O)NC(Nc1cccc([N+](=O)[O-])c1)C(Cl)(Cl)Cl (stereo not drawn) | 8.76% |
| CCOc1ccc(C2OC(=O)Cc3cc(OC)c(OC)cc32)cc1 (stereo not drawn) | 3.1% |
| CN(C)S(=O)(=O)c1ccc(C(=O)Nc2cc(S(=O)(=O)Nc3ccccc3Cl)ccc2N2CCCCC2)cc1 | 12.7% |
| COc1ccc(Cl)cc1S(=O)(=O)NC(C)C(=O)NCCCn1ccnc1 (stereo not drawn) | 8.42% |

| SMILES | hERG current change (%, negative = inhibition) at 1uM |
| --- | --- |
| CN(C)/C=C(/C(=O)c1ccc(Cl)cc1)n1cncn1 | 6.85% |
| CCOC(=O)C1CCN(C(=O)CN2C(=O)COc3ccc(C(C)(C)C)cc32)CC1 | 11% |
| COc1ccc(Nc2nc(C(=O)N(CCO)Cc3ccccc3)cs2)cc1 | 5.07% |
| CCOC(=O)C[C@H]1c2ccccc2S(=O)(=O)N1C1CC1 | 6.5% |
| CCN(CC)CCN(Cc1cc2cc3c(cc2[nH]c1=O)OCCO3)C(=S)NCCCN(C)C | 14.5% |
| CCOc1ccc(N=Cc2ccc3ccccc3c2)cc1 | 5.91% |
| COc1ccc(C(=O)c2c(O)cc(-c3ccc(OC)cc3)oc2=O)cc1 | 12.3% |
| C[C@]1(CO)CCC[C@@]2(C)C1CC[C@@H](CO)[C@@H]2CCc1ccoc1 (stereo partly drawn) | 11% |
| Cc1cc(C)c(NC(=O)C2CC3CCC2C3)c(C)c1 (stereo not drawn) | 23.3% |
| CCCCCNS(=O)(=O)c1cc2c3c(c1)CCC(=O)N3CCC2 | 12.8% |
| O=C1NCC(O)=C1C=NC12CC3CC(CC(C3)C1)C2 [14736166] | 6.01% |
| CCCCOc1ccc(C(=O)N2CCN(c3ccc(N4CCOCC4)nn3)CC2)cc1 | -6.28% |
| CCOC(=O)c1cc2occc2n1Cc1c(F)cccc1Cl | -1.33% |
| COc1ccc(S(=O)(=O)N(C)CC(=O)Nc2ccc3c(c2)OCO3)cc1OC | 5.56% |
| COC(=O)C1CCN(C(=O)COC(=O)c2ccc(=O)n(Cc3ccccc3)n2)CC1 | 14.3% |
| COc1ccc(S(=O)(=O)N(Cc2ccccc2)c2ccccc2C(=O)N2CCOCC2)cc1 | 11.4% |
| Cc1ccc(/C=N/NC(=O)c2cc3c(ccc4ccccc43)o2)cc1[N+](=O)[O-] | -0.662% |
| Nn1c(-c2ccccn2)nnc1-c1ccccn1 | 0.52% |
| Cc1ccc(S(=O)(=O)N2CCN(S(C)(=O)=O)CC2)cc1 | 1.23% |
| Cc1ccc(NC(=O)Cn2ncn3c(cc4ccccc43)c2=O)cc1F | -1.29% |
| CN(C)S(=O)(=O)c1ccc(C(=O)NCc2ccccc2)cc1 | -2.73% |
